# In the supplement of paper PMC11741623:
# The list shows a part of the results. Interaction screen of human proteins with wild-type SARS-CoV-2 proteins by split-DHFR complementation in yeast, 1 µg/mL methotrexate. Value = fitness of the pair (three or more lineages) minus that of the viral protein without a human partner, on a scale set by negative (0) and fused positive (1) controls, mean of up to three cultures; higher = more likely to interact. Active = false discovery rate below 0.05 (one-sided t-test) in at least one culture. Nearly all pairs are not hits, and differences among them are mostly noise (correlation between cultures about 0.3); most hits were seen in one culture only. Human sequences are the Swiss-Prot entries looked up by gene name; the clone may be another isoform. NSP2 values were corrected by the authors for a growth advantage. Listed are human proteins with a hit and a random twelfth of the others.
# B1: C10orf111, Q8N326 (protein)
# chain: MESLQTPQHRENQDKREKEYGVKHMPMGNNAGNLEPEKRKAVRVALSSATAAQNIPSSVHCGCSKQWRLRLPSESLQSRGQVMKRPNNILKLRNLDLLIYPWPELRRRQVASDLMSLLLLPAFSGLTWAPFLFLFTYLPPFLNLLTVGFVSYFLV
# B2: KPNA4, O00629 (protein)
# chain: MADNEKLDNQRLKNFKNKGRDLETMRRQRNEVVVELRKNKRDEHLLKRRNVPHEDICEDSDIDGDYRVQNTSLEAIVQNASSDNQGIQLSAVQAARKLLSSDRNPPIDDLIKSGILPILVHCLERDDNPSLQFEAAWALTNIASGTSEQTQAVVQSNAVPLFLRLLHSPHQNVCEQAVWALGNIIGDGPQCRDYVISLGVVKPLLSFISPSIPITFLRNVTWVMVNLCRHKDPPPPMETIQEILPALCVLIHHTDVNILVDTVWALSYLTDAGNEQIQMVIDSGIVPHLVPLLSHQEVKVQTAALRAVGNIVTGTDEQTQVVLNCDALSHFPALLTHPKEKINKEAVWFLSNITAGNQQQVQAVIDANLVPMIIHLLDKGDFGTQKEAAWAISNLTISGRKDQVAYLIQQNVIPPFCNLLTVKDAQVVQVVLDGLSNILKMAEDEAETIGNLIEECGGLEKIEQLQNHENEDIYKLAYEIIDQFFSSDDIDEDPSLVPEAIQGGTFGFNSSANVPTEGFQF
# B3: LSR, Q86X29 (protein)
# chain: MQQDGLGVGTRNGSGKGRSVHPSWPWCAPRPLRYFGRDARARRAQTAAMALLAGGLSRGLGSHPAAAGRDAVVFVWLLLSTWCTAPARAIQVTVSNPYHVVILFQPVTLPCTYQMTSTPTQPIVIWKYKSFCRDRIADAFSPASVDNQLNAQLAAGNPGYNPYVECQDSVRTVRVVATKQGNAVTLGDYYQGRRITITGNADLTFDQTAWGDSGVYYCSVVSAQDLQGNNEAYAELIVLGRTSGVAELLPGFQAGPIEDWLFVVVVCLAAFLIFLLLGICWCQCCPHTCCCYVRCPCCPDKCCCPEALYAAGKAATSGVPSIYAPSTYAHLSPAKTPPPPAMIPMGPAYNGYPGGYPGDVDRSSSAGGQGSYVPLLRDTDSSVASEVRSGYRIQASQQDDSMRVLYYMEKELANFDPSRPGPPSGRVERAMSEVTSLHEDDWRSRPSRGPALTPIRDEEWGGHSPRSPRGWDQEPAREQAGGGWRARRPRARSVDALDDLTPPSTAESGSRSPTSNGGRSRAYMPPRSRSRDDLYDQDDSRDFPRSRDPHYDDFRSRERPPADPRSHHHRTRDPRDNGSRSGDLPYDGRLLEEAVRKKGSEERRRPHKEEEEEAYYPPAPPPYSETDSQASRERRLKKNLALSRESLVV
# B4: OR2B6, P58173 (protein)
# chain: MNWVNDSIIQEFILLGFSDRPWLEFPLLVVFLISYTVTIFGNLTIILVSRLDTKLHTPMYFFLTNLSLLDLCYTTCTVPQMLVNLCSIRKVISYRGCVAQLFIFLALGATEYLLLAVMSFDRFVAICRPLHYSVIMHQRLCLQLAAASWVTGFSNSVWLSTLTLQLPLCDPYVIDHFLCEVPALLKLSCVETTANEAELFLVSELFHLIPLTLILISYAFIVRAVLRIQSAEGRQKAFGTCGSHLIVVSLFYSTAVSVYLQPPSPSSKDQGKMVSLFYGIIAPMLNPLIYTLRNKEVKEGFKRLVARVFLIKK
# B5: ZPBP2, Q6X784 (protein)
# chain: MMRTCVLLSAVLWCLTGVQCPRFTLFNKKGFIYGKTGQPDKIYVELHQNSPVLICMDFKLSKKEIVDPTYLWIGPNEKTLTGNNRINITETGQLMVKDFLEPLSGLYTCTLSYKTVKAETQEEKTVKKRYDFMVFAYREPDYSYQMAVRFTTRSCIGRYNDVFFRVLKKILDSLISDLSCHVIEPSYKCHSVEIPEHGLIHELFIAFQVNPFAPGWKGACNGSVDCEDTTNHNILQARDRIEDFFRSQAYIFYHNFNKTLPAMHFVDHSLQVVRLDSCRPGFGKNERLHSNCASCCVVCSPATFSPDVNVTCQTCVSVLTYGAKSCPQTSNKNQQYED
# Target: SARS-CoV-2 NSP10
# Assay: yeast fitness gain over the viral ORF with no human partner (scaled fitness); higher = more likely to interact
# Procedure: (§1)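 Split mouse DHFR complementation in pooled diploid yeast: human ORFeome clones carry one fragment and viral ORFs the other; barcoded lineages compete in 1 µg/mL methotrexate and fitness is read by barcode sequencing in up to three cultures.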
row,Binder,yeast fitness gain
1,B1,inactive: 0.0503
2,B2,inactive: 0.0202
3,B3,inactive: 0.0053
4,B4,inactive: -0.0102
5,B5,inactive: 0.0788

# Target: SARS-CoV-2 NSP12
# Assay: as above
# Procedure: as §1
row,Binder,yeast fitness gain
1,B1,inactive: -0.199
2,B2,inactive: -0.0349
3,B4,inactive: -0.0132

# Target: SARS-CoV-2 NSP13
# Assay: as above
# Procedure: as §1
row,Binder,yeast fitness gain
1,B1,inactive: 0.0733
2,B2,inactive: -0.0137
3,B3,inactive: 0.0662
4,B4,inactive: -0.0546
5,B5,inactive: -0.251

# Target: SARS-CoV-2 NSP2
# Assay: as above
# Procedure: as §1
row,Binder,yeast fitness gain
1,B1,inactive: -0.0426
2,B2,inactive: -0.197
3,B3,inactive: -0.085
4,B4,inactive: -0.235
5,B5,inactive: -0.0786

# Target: SARS-CoV-2 NSP5
# Assay: as above
# Procedure: as §1
row,Binder,yeast fitness gain
1,B1,inactive: -0.0659
2,B3,inactive: 0.0468
3,B4,inactive: -0.0853

# Target: SARS-CoV-2 ORF10
# Assay: as above
# Procedure: as §1
row,Binder,yeast fitness gain
1,B1,inactive: -0.284
2,B2,inactive: 0.00312
3,B3,inactive: -0.0361
4,B5,inactive: -0.204

# Target: SARS-CoV-2 ORF3B
# Assay: as above
# Procedure: as §1
row,Binder,yeast fitness gain
1,B1,inactive: 0.0147
2,B2,inactive: 0.0916
3,B3,inactive: 0.0379
4,B4,inactive: -0.0822
5,B5,inactive: -0.179

# Target: SARS-CoV-2 ORF6
# Assay: as above
# Procedure: as §1
row,Binder,yeast fitness gain
1,B1,inactive: -0.0317
2,B2,inactive: -0.00557
3,B3,inactive: 0.114
4,B4,inactive: -0.0176
5,B5,inactive: -0.041

# Target: SARS-CoV-2 ORF7A
# Assay: as above
# Procedure: as §1
row,Binder,yeast fitness gain
1,B1,inactive: -0.0691
2,B2,inactive: 0.197
3,B3,inactive: -0.244
4,B4,inactive: 0.00333

# Target: SARS-CoV-2 ORF7B
# Assay: as above
# Procedure: as §1
row,Binder,yeast fitness gain
1,B1,inactive: -0.116
2,B2,inactive: 0.235
3,B3,inactive: -0.192

# Target: SARS-CoV-2 ORF8
# Assay: as above
# Procedure: as §1
row,Binder,yeast fitness gain
1,B1,inactive: 0.00685
2,B2,inactive: -0.0289
3,B5,inactive: -0.371

# Target: SARS-CoV-2 ORF9B
# Assay: as above
# Procedure: as §1
row,Binder,yeast fitness gain
1,B1,inactive: 0.145
2,B3,inactive: 0.126
3,B5,inactive: 0.0346

# Target: SARS-CoV-2 NSP7
# Assay: as above
# Procedure: as §1
row,Binder,yeast fitness gain
1,B2,inactive: -0.0453
2,B5,inactive: -0.0686

# Target: SARS-CoV-2 NSP8
# Assay: as above
# Procedure: as §1
row,Binder,yeast fitness gain
1,B2,inactive: 0.0714
2,B4,inactive: -0.0267

# Target: SARS-CoV-2 ORF9Bwu (the 73-codon ORF)
# Assay: as above
# Procedure: as §1
row,Binder,yeast fitness gain
1,B2,inactive: -0.0295

# Target: SARS-CoV-2 NSP4
# Assay: as above
# Procedure: as §1
row,Binder,yeast fitness gain
1,B3,inactive: -0.0996

# Target: SARS-CoV-2 NSP15
# Assay: as above
# Procedure: as §1
row,Binder,yeast fitness gain
1,B4,inactive: -0.119

# Target: SARS-CoV-2 NSP6
# Assay: as above
# Procedure: as §1
row,Binder,yeast fitness gain
1,B4,inactive: 0.0367
2,B5,inactive: 0.041
